Laboratory results taken from the supplement of paper PMC10369915.
Some of the results follow. Cut-off read from the data, not from the text of the source: active = 3.2 or more and inactive = the rest. Only a few entries rise above the background.

Legend:
Assay in all cases: enrichment score (SH2-bound / input frequency) (ratio); bacterial display of known human phosphotyrosine sites (pTyr-Var adds point mutants) read by sequencing; higher = stronger binding; tyrosines were phosphorylated by kinases first
Details in all cases: peptide library: pTyr-Var
[1] = target: SHP2 C-SH2 domain E139D
[2] = target: SHP2 C-SH2 domain wild-type
[3] = target: SHP2 N-SH2 domain L43F
[4] = target: SHP2 N-SH2 domain T42A
[5] = target: SHP2 N-SH2 domain T52S
[6] = target: SHP2 N-SH2 domain wild-type
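Note: displayed peptides selected on beads carrying the immobilized SH2 domain, with library peptides lacking any tyrosine serving as negative controls.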

B1: FAM3D_Y122_A118S (peptide)
chain: KSFDMYSGDVM
- enrichment score [1]: inactive: 0.651
- enrichment score [2]: inactive: 0.623
- enrichment score [3]: inactive: 0.745
- enrichment score [4]: inactive: 0.654
- enrichment score [5]: inactive: 0.637
- enrichment score [6]: inactive: 0.541

B2: FANCD2_Y458_L456R_YF (peptide)
chain: FGSRLYKFAFK
- enrichment score [1]: inactive: 0.583
- enrichment score [2]: inactive: 0.496
- enrichment score [3]: inactive: 0.482
- enrichment score [4]: inactive: 0.501
- enrichment score [5]: inactive: 0.506
- enrichment score [6]: inactive: 0.637

B3: FARSB_Y72_C76R (peptide)
chain: VPANRYDLLRL
- enrichment score [1]: inactive: 0.816
- enrichment score [2]: inactive: 0.829
- enrichment score [3]: inactive: 0.927
- enrichment score [4]: inactive: 0.806
- enrichment score [5]: inactive: 0.797
- enrichment score [6]: inactive: 0.712

B4: FAS_Y232 (peptide)
chain: VDLSKYITTIA
- enrichment score [1]: inactive: 1.11
- enrichment score [2]: inactive: 1.02
- enrichment score [3]: inactive: 1.29
- enrichment score [4]: inactive: 1.19
- enrichment score [5]: inactive: 1.25
- enrichment score [6]: inactive: 1.09

B5: FBP1_Y259 (peptide)
chain: HRTLVYGGIFL
- enrichment score [1]: inactive: 0.705
- enrichment score [2]: inactive: 1.12
- enrichment score [3]: inactive: 1.39
- enrichment score [4]: inactive: 0.765
- enrichment score [5]: inactive: 0.931
- enrichment score [6]: inactive: 1.1

B6: FBXO15_Y496 (peptide)
chain: VNLVLYLSIAK
- enrichment score [1]: inactive: 0.846
- enrichment score [2]: inactive: 1.03
- enrichment score [3]: inactive: 0.535
- enrichment score [4]: inactive: 0.709
- enrichment score [5]: inactive: 0.628
- enrichment score [6]: inactive: 1.57

B7: FBXO8_Y156 (peptide)
chain: DEGVNYFMSKG
- enrichment score [1]: inactive: 0.797
- enrichment score [2]: inactive: 0.921
- enrichment score [3]: inactive: 0.851
- enrichment score [4]: inactive: 0.664
- enrichment score [5]: inactive: 0.777
- enrichment score [6]: inactive: 1.13

B8: FBXO8_Y156_Y156H (peptide)
chain: DEGVNHFMSKG
- enrichment score [1]: inactive: 0.803
- enrichment score [2]: inactive: 0.601
- enrichment score [3]: inactive: 0.667
- enrichment score [4]: inactive: 0.892
- enrichment score [5]: inactive: 0.614
- enrichment score [6]: inactive: 0.675

B9: FCRL6_Y239_D244N_YF (peptide)
chain: SPPILYSFFLN
- enrichment score [1]: inactive: 1.55
- enrichment score [2]: inactive: 1.51
- enrichment score [3]: inactive: 1.34
- enrichment score [4]: inactive: 1.47
- enrichment score [5]: inactive: 1.52
- enrichment score [6]: inactive: 1.59

B10: FGB_Y172_N170H (peptide)
chain: NVVHEYSSELE
- enrichment score [1]: inactive: 0.561
- enrichment score [2]: inactive: 0.789
- enrichment score [3]: inactive: 0.64
- enrichment score [4]: inactive: 0.808
- enrichment score [5]: inactive: 0.619
- enrichment score [6]: inactive: 0.844

B11: FGB_Y269 (peptide)
chain: KPYRVYCDMNT
- enrichment score [1]: inactive: 0.785
- enrichment score [2]: inactive: 1.11
- enrichment score [3]: inactive: 0.839
- enrichment score [4]: inactive: 0.793
- enrichment score [5]: inactive: 0.842
- enrichment score [6]: inactive: 1.04

B12: FGB_Y71_R74C (peptide)
chain: ISGGGYRACPA
- enrichment score [1]: inactive: 0.77
- enrichment score [2]: inactive: 0.812
- enrichment score [3]: inactive: 0.781
- enrichment score [4]: inactive: 0.648
- enrichment score [5]: inactive: 0.582
- enrichment score [6]: inactive: 0.889

B13: FGF10_Y161 (peptide)
chain: IEENGYNTYAS
- enrichment score [1]: inactive: 0.592
- enrichment score [2]: inactive: 0.53
- enrichment score [3]: inactive: 0.457
- enrichment score [4]: inactive: 0.516
- enrichment score [5]: inactive: 0.439
- enrichment score [6]: inactive: 0.674

B14: FGF11_Y162_R163G_YF (peptide)
chain: FASALYGQRRS
- enrichment score [1]: inactive: 0.229
- enrichment score [2]: inactive: 0.271
- enrichment score [3]: inactive: 0.194
- enrichment score [4]: inactive: 0.257
- enrichment score [5]: inactive: 0.269
- enrichment score [6]: inactive: 0.263

B15: FGF23_Y154 (peptide)
chain: MNPPPYSQFLS
- enrichment score [1]: inactive: 0.917
- enrichment score [2]: inactive: 0.596
- enrichment score [3]: inactive: 1.02
- enrichment score [4]: inactive: 0.821
- enrichment score [5]: inactive: 0.917
- enrichment score [6]: inactive: 0.902

B16: FGF7_Y56 (peptide)
chain: RHTRSYDYMEG
- enrichment score [1]: inactive: 1.26
- enrichment score [2]: inactive: 0.986
- enrichment score [3]: inactive: 0.867
- enrichment score [4]: inactive: 0.813
- enrichment score [5]: inactive: 1.15
- enrichment score [6]: inactive: 1.16

B17: FGF7_Y56_M59T_YF (peptide)
chain: RHTRSYDFTEG
- enrichment score [1]: inactive: 0.815
- enrichment score [2]: inactive: 0.868
- enrichment score [3]: inactive: 0.879
- enrichment score [4]: inactive: 0.673
- enrichment score [5]: inactive: 0.649
- enrichment score [6]: inactive: 0.878

B18: FGF7_Y58_M59T (peptide)
chain: TRSYDYTEGGD
- enrichment score [1]: inactive: 0.486
- enrichment score [2]: inactive: 0.474
- enrichment score [3]: inactive: 0.599
- enrichment score [4]: inactive: 0.51
- enrichment score [5]: inactive: 0.624
- enrichment score [6]: inactive: 0.609

B19: FGF7_Y58_YF (peptide)
chain: TRSFDYMEGGD
- enrichment score [1]: inactive: 0.739
- enrichment score [2]: inactive: 0.507
- enrichment score [3]: inactive: 0.563
- enrichment score [4]: inactive: 0.571
- enrichment score [5]: inactive: 0.538
- enrichment score [6]: inactive: 0.643

B20: FGFR1_Y210 (peptide)
chain: GYKVRYATWSI
- enrichment score [1]: inactive: 2.98
- enrichment score [2]: inactive: 3.12
- enrichment score [3]: inactive: 2.65
- enrichment score [4]: inactive: 3.03
- enrichment score [5]: inactive: 2.71
- enrichment score [6]: inactive: 2.44

B21: FGFR1_Y280_C277Y_YF (peptide)
chain: FMFKVYSDPQP
- enrichment score [1]: inactive: 0.839
- enrichment score [2]: inactive: 0.886
- enrichment score [3]: inactive: 0.865
- enrichment score [4]: inactive: 0.641
- enrichment score [5]: inactive: 0.62
- enrichment score [6]: inactive: 1.01

B22: FGFR1_Y280_P283R (peptide)
chain: FMCKVYSDRQP
- enrichment score [1]: inactive: 0.659
- enrichment score [2]: inactive: 0.794
- enrichment score [3]: inactive: 0.698
- enrichment score [4]: inactive: 0.728
- enrichment score [5]: inactive: 0.612
- enrichment score [6]: inactive: 0.995

B23: FGFR1_Y605_V607M (peptide)
chain: LVSCAYQMARG
- enrichment score [1]: inactive: 0.828
- enrichment score [2]: inactive: 0.862
- enrichment score [3]: inactive: 1.02
- enrichment score [4]: inactive: 0.881
- enrichment score [5]: inactive: 1.35
- enrichment score [6]: inactive: 1.3

B24: FGFR1_Y613 (peptide)
chain: ARGMEYLASKK
- enrichment score [1]: inactive: 0.694
- enrichment score [2]: inactive: 0.831
- enrichment score [3]: inactive: 0.603
- enrichment score [4]: inactive: 0.502
- enrichment score [5]: inactive: 0.547
- enrichment score [6]: inactive: 0.631

B25: FGFR1_Y653_K656E (peptide)
chain: IHHIDYYKETT
- enrichment score [1]: inactive: 1.3
- enrichment score [2]: inactive: 1.08
- enrichment score [3]: inactive: 1.45
- enrichment score [4]: inactive: 1.03
- enrichment score [5]: inactive: 1.43
- enrichment score [6]: inactive: 1.28

B26: FGFR1_Y766_D768Y (peptide)
chain: TSNQEYLYLSM
- enrichment score [1]: inactive: 0.715
- enrichment score [2]: inactive: 0.708
- enrichment score [3]: inactive: 0.718
- enrichment score [4]: inactive: 0.685
- enrichment score [5]: inactive: 0.569
- enrichment score [6]: inactive: 0.856

B27: FGFR2_Y616_R612T (peptide)
chain: ATGMEYLASQK
- enrichment score [1]: inactive: 0.859
- enrichment score [2]: inactive: 0.906
- enrichment score [3]: inactive: 0.665
- enrichment score [4]: inactive: 0.776
- enrichment score [5]: inactive: 0.835
- enrichment score [6]: inactive: 0.867

B28: FGFR3_Y647_K650M (peptide)
chain: VHNLDYYKMTT
- enrichment score [1]: inactive: 0.96
- enrichment score [2]: inactive: 0.994
- enrichment score [3]: inactive: 0.896
- enrichment score [4]: inactive: 0.679
- enrichment score [5]: inactive: 0.866
- enrichment score [6]: inactive: 1.08

B29: FGFR3_Y648_K650E (peptide)
chain: HNLDYYKETTN
- enrichment score [1]: inactive: 1.08
- enrichment score [2]: inactive: 2.26
- enrichment score [3]: inactive: 0.791
- enrichment score [4]: inactive: 0.661
- enrichment score [5]: inactive: 0.866
- enrichment score [6]: inactive: 1.06

B30: FGFR3_Y648_YF (peptide)
chain: HNLDFYKKTTN
- enrichment score [1]: inactive: 0.621
- enrichment score [2]: inactive: 0.584
- enrichment score [3]: inactive: 0.79
- enrichment score [4]: inactive: 0.54
- enrichment score [5]: inactive: 0.437
- enrichment score [6]: inactive: 0.931

B31: FGFR3_Y724 (peptide)
chain: CTHDLYMIMRE
- enrichment score [1]: inactive: 1
- enrichment score [2]: inactive: 1.08
- enrichment score [3]: inactive: 0.949
- enrichment score [4]: inactive: 0.849
- enrichment score [5]: inactive: 1.02
- enrichment score [6]: inactive: 1

B32: FGFR3_Y724_I726F (peptide)
chain: CTHDLYMFMRE
- enrichment score [1]: inactive: 0.952
- enrichment score [2]: inactive: 1.09
- enrichment score [3]: inactive: 0.845
- enrichment score [4]: inactive: 0.807
- enrichment score [5]: inactive: 0.882
- enrichment score [6]: inactive: 1.01

B33: FGFR4_Y237 (peptide)
chain: SIRYNYLLDVL
- enrichment score [1]: inactive: 1.08
- enrichment score [2]: inactive: 1.48
- enrichment score [3]: inactive: 1.17
- enrichment score [4]: inactive: 2.63
- enrichment score [5]: inactive: 1.07
- enrichment score [6]: inactive: 0.868

B34: FGFR4_Y237_S232I (peptide)
chain: IIRYNYLLDVL
- enrichment score [1]: inactive: 3
- enrichment score [2]: inactive: 2.35
- enrichment score [3]: inactive: 2.77
- enrichment score [4]: active: 4.62
- enrichment score [5]: inactive: 2.62
- enrichment score [6]: inactive: 2.34

B35: FGFR4_Y237_S232I_YF (peptide)
chain: IIRFNYLLDVL
- enrichment score [1]: active: 4.73
- enrichment score [2]: active: 3.53
- enrichment score [3]: active: 4.06
- enrichment score [4]: active: 4.06
- enrichment score [5]: active: 3.95
- enrichment score [6]: active: 3.71

B36: FGFR4_Y390 (peptide)
chain: LLAGLYRGQAL
- enrichment score [1]: inactive: 1.81
- enrichment score [2]: inactive: 1.41
- enrichment score [3]: inactive: 1.64
- enrichment score [4]: inactive: 1.53
- enrichment score [5]: inactive: 1.88
- enrichment score [6]: inactive: 1.53

B37: FGG_Y300_R301H_YF (peptide)
chain: PEADKYHLTFA
- enrichment score [1]: inactive: 0.863
- enrichment score [2]: inactive: 1.04
- enrichment score [3]: inactive: 1.19
- enrichment score [4]: inactive: 1.41
- enrichment score [5]: inactive: 1.52
- enrichment score [6]: inactive: 1.07
